Reference: PubChem BioAssay (Tox21)
Activity calls are given as the source filed them. Unless noted, calls follow the shape of the dose curve; as a rule, active = well fitted curve in the direction sought with a large enough effect in the repeat runs; inconclusive = weak or mixed curves; inactive = no such curve, though single readings can be large; an effect the other way counts as inactive or inconclusive.

Columns and labels:
[1] = qHTS assay for small molecule agonists of the p53 signaling pathway (AID 651631; calls by dose curve; also: nearly all actives have a fitted effect of over 15% in size; as to activation: % is scaled to controls: 0 for no effect and ±100 for the full control effect); settings: HCT-116 p53RE-bla reporter, beta-lactamase FRET ratio, 16 h; activation: at 73.3 µM (top of the series) unless noted
Method in brief: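 HCT-116 cells carrying a beta-lactamase reporter under p53 response elements were dosed with compound for 16 h at 37 °C. LiveBLAzer B/G FRET substrate was then added for 2 h at room temperature, and fluorescence intensity was read to detect pathway agonism.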

[2] = qHTS assay for small molecule disruptors of the mitochondrial membrane potential (AID 720635); settings: HepG2 mitochondrial membrane potential, Mito-MPS dye ratio; ratio activity, negative = MMP loss: at 83.2 µM (top of the series) unless noted; as to ratio activity, negative = MMP loss: % is scaled to controls: 0 for no effect and ±100 for the full control effect
Method in brief: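 HepG2 cells exposed to compound 1 hr at 37C, then Mito-MPS dye 30 min. Ratio read of aggregate (540/590 nm) versus monomer (490/535 nm) fluorescence.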

[3] = target: Glucocorticoid receptor (Homo sapiens) (UniProt P04150); assay: qHTS assay to identify small molecule agonists of the glucocorticoid receptor (GR) signaling pathway (AID 720691; active = well fitted activation curve with a large enough effect in the signal ratio in the repeat runs, not every such curve was filed as active; inconclusive = weak or mixed curves, or effect the other way; inactive = no such curve, though single readings can be large or run the other way; the % refers to the signal ratio); settings: GR-bla HeLa, beta-lactamase reporter ratio, 18 h; activation: at 62.4 µM (top of the series) unless noted
Method in brief: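 Fluorescence intensity from LiveBLAzer B/G FRET substrate (2 h, room temperature) reports beta-lactamase expression driven by the glucocorticoid response element in GR-bla HeLa cells after 18 h compound exposure at 37 C.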

[4] = target: Glucocorticoid receptor (Homo sapiens) (UniProt P04150); assay: qHTS assay to identify small molecule antagonists of the glucocorticoid receptor (GR) signaling pathway (AID 720692; active = well fitted inhibition curve with a large enough effect in the signal ratio in the repeat runs, not every such curve was filed as active; inconclusive = weak or mixed curves, or effect the other way; inactive = no such curve, though single readings can be large or run the other way; the % refers to the signal ratio); settings: GR-bla HeLa, beta-lactamase FRET ratio, dexamethasone-stimulated, 18 h; activity change, negative = inhibition: at 58.5 µM (top of the series) unless noted
Method in brief: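 HeLa GR-bla cells; cmpd + dex 5 nM final, 18 h 37 C; LiveBLAzer B/G FRET substrate 2 h RT; fluorescence intensity read. Antagonist mode, qHTS.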

[5] = qHTS assay to identify small molecule antagonists of the glucocorticoid receptor (GR) signaling pathway - cell viability counter screen (AID 720693); settings: GR-bla HeLa viability, CellTiter-Glo luminescence, 18 h, with 5 nM dexamethasone present; viability change, negative = cytotoxic: at 58.5 µM (top of the series); also: nearly all actives have a fitted effect of over 55% in size
[6] = test system: thyroid hormone receptor (rat, GH3 cells); assay: qHTS assay to identify small molecule agonists of the thyroid receptor (TR) signaling pathway (AID 743066; calls by dose curve; as to activation: % is scaled to controls: 0 for no effect and ±100 for the full control effect); settings: GH3.TRE-Luc cells, TR agonist luciferase, 24 h; activation: at 83.9 µM (top of the series) unless noted
[7] = target: Estrogen receptor (Homo sapiens) (UniProt P03372); assay: qHTS assay to identify small molecule antagonists of the estrogen receptor alpha (ER-alpha) signaling pathway (AID 743069; active = well fitted curve in the direction sought with a large enough effect in the signal ratio in the repeat runs, not every such curve was filed as active; inconclusive = weak or mixed curves, or effect the other way; inactive = no such curve, though single readings can be large or run the other way; the % refers to the signal ratio); settings: HEK293 ER-alpha-UAS-bla, beta-lactamase ratio, antagonist mode; activity, negative = inhibition: at 69.4 µM (top of the series) unless noted
Method in brief: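 Reporter cells (ER-alpha-bla, HEK293 background) are conditioned overnight in stripped-serum medium (2% charcoal-stripped FBS). Compound and 17beta-estradiol exposure runs 18 hr at 37C, 5% CO2.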

[8] = qHTS assay to identify small molecule antagonists of the estrogen receptor alpha (ER-alpha) signaling pathway - cell viability counter screen (AID 743074; calls by dose curve;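 also: HEK293 cells carrying ER-alpha-UAS-bla reporter stimulated with 17beta-estradiol; nearly all actives have a fitted effect of over 45% in size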)
[9] = target: Estrogen receptor (Homo sapiens) (UniProt P03372); assay: qHTS assay to identify small molecule agonists of the estrogen receptor alpha (ER-alpha) signaling pathway using the BG1 cell line (AID 743079); settings: BG1Luc4E2 cells, ERE-luciferase agonist, 22 h; activation: at 70.3 µM (top of the series) unless noted; also: nearly all actives have a fitted effect of over 20% in size
[10] = qHTS assay to identify small molecule antagonists of the estrogen receptor alpha (ER-alpha) signaling pathway using the BG1 cell line (AID 743080; calls by dose curve; also: nearly all actives have a fitted effect of over 25% in size); settings: BG1Luc4E2 ERE-luciferase antagonist mode, luminescence; activity change, negative = inhibition: at 70.3 µM (top of the series) unless noted
Method in brief: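 Antagonist mode: compounds in DMSO were pinned onto BG1-Luc-4E2 cells alongside 17beta-estradiol agonist, incubated 21.5 h, and ERE-driven luciferase measured with ONE-Glo. Cytotoxicity was multiplexed using CellTiter-Fluor fluorescence.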

[11] = qHTS assay to identify small molecule antagonists of the estrogen receptor alpha (ER-alpha) signaling pathway using the BG1 cell line - cell viability counter screen (AID 743081); settings: BG1Luc4E2 viability, CellTiter-Fluor, 22 h; activity change, negative = cytotoxicity: at 70.3 µM (top of the series) unless noted;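 also: compound given together with 17beta-estradiol as the ER stimulus; nearly all actives have a fitted effect of over 45% in size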
[12] = qHTS assay to identify aromatase inhibitors - cell viability counter screen (AID 743084); settings: MCF-7 aro ERE viability, CellTiter-Fluor, 24 h; activity change, negative = cytotoxicity: at 70.3 µM (top of the series) unless noted;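 also: cells stimulated with testosterone during compound exposure; nearly all actives have a fitted effect of over 55% in size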
[13] = target: Peroxisome proliferator-activated receptor gamma (Homo sapiens) (UniProt P37231); assay: qHTS assay to identify small molecule agonists of the peroxisome proliferator-activated receptor gamma (PPARg) signaling pathway (AID 743094; active = well fitted activation curve with a large enough effect in the signal ratio in the repeat runs, not every such curve was filed as active; inconclusive = weak or mixed curves, or effect the other way; inactive = no such curve, though single readings can be large or run the other way; the % refers to the signal ratio; as to activation: % is scaled to controls: 0 for no effect and ±100 for the full control effect); settings: HEK293H PPARg-UAS-bla, beta-lactamase FRET ratio, 17 h; activation: at 57 µM (top of the series) unless noted
Method in brief: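 Beta-lactamase FRET fluorescence was the read-out after a 1 h room-temperature substrate step, following 17 h compound treatment at 37C of HEK293H cells expressing a UAS-driven bla reporter responsive to PPARg.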

[14] = qHTS assay for identifying genotoxic compounds that show differential cytotoxicity against isogenic chicken DT40 cell lines with known DNA damage response pathways - wild type cell line (AID 743012); settings: DT40 wild type chicken cells viability, CellTiter-Glo, 40 h; activity change, negative = cytotoxicity: at 68.4 µM (top of the series) unless noted; also: nearly all actives have a fitted effect of over 60% in size
Method in brief: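 Wild type DT40, 300 cells/well, ~0.5 h settle at 37 C/5% CO2; compounds in DMSO added by pintool; 40 h at 37 C/5% CO2; CellTiter-Glo, 30 min RT; luminescence.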

[15] = qHTS assay for identifying genotoxic compounds that show differential cytotoxicity against isogenic chicken DT40 cell lines with known DNA damage response pathways - Rev3 mutant cell line (AID 743014); settings: chicken DT40 Rev3-/- viability, CellTiter-Glo, 40 h; activity, negative = cytotoxicity: at 68.4 µM (top of the series) unless noted; also: nearly all actives have a fitted effect of over 55% in size
[16] = qHTS assay for identifying genotoxic compounds that show differential cytotoxicity against isogenic chicken DT40 cell lines with known DNA damage response pathways - Rad54/Ku70 mutant cell line (AID 743015); settings: DT40 Rad54/Ku70 mutant viability, CellTiter-Glo, 40 h; activity change, negative = cytotoxicity: at 66.8 µM (top of the series) unless noted; also: nearly all actives have a fitted effect of over 60% in size
[17] = qHTS assay to identify small molecule antagonists of the androgen receptor (AR) signaling pathway - cell viability counter screen (AID 743033; also: nearly all actives have a fitted effect of over 45% in size); settings: AR-bla HEK293 viability, CellTiter-Glo luminescence, 16 h; activity change, negative = cytotoxicity: at 58.5 µM (top of the series) unless noted
[18] = qHTS assay to identify small molecule antagonists of the androgen receptor (AR) signaling pathway using the MDA cell line - cell viability counter screen (AID 743041; also: nearly all actives have a fitted effect of over 45% in size); settings: MDA-kb2 viability, CellTiter-Fluor, 16 h, cells co-treated with R1881 androgen agonist; viability change, negative = cytotoxic: at 70.3 µM (top of the series)
Method in brief: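 Same-well cytotoxicity was assessed by CellTiter-Fluor in MDA-kb2 AR-luc cells after 16 h of compound treatment under R1881 agonism.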

[19] = qHTS assay to identify small molecule antagonists of the thyroid receptor (TR) signaling pathway - cell viability counter screen (AID 743064); settings: GH3.TRE-Luc viability, CellTiter-Fluor, 24 h; activity change, negative = cytotoxic: at 70.3 µM (top of the series) unless noted; also: nearly all actives have a fitted effect of over 50% in size
Method in brief: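 GH3.TRE-Luc rat pituitary cells dosed after 4 hr plating, co-stimulated with T3 at 1 nM final, incubated 23.5 h at 37 C. Viability measured in the same wells by CellTiter-Fluor fluorescence after 30 min further at 37 C.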
Potency is read from the fitted curve at half-maximal effect; tags tell the direction and shape of the fitted curve or compound fluorescence and quenching.

UniProt P04150, sequence (P04150 whole entry, looked up): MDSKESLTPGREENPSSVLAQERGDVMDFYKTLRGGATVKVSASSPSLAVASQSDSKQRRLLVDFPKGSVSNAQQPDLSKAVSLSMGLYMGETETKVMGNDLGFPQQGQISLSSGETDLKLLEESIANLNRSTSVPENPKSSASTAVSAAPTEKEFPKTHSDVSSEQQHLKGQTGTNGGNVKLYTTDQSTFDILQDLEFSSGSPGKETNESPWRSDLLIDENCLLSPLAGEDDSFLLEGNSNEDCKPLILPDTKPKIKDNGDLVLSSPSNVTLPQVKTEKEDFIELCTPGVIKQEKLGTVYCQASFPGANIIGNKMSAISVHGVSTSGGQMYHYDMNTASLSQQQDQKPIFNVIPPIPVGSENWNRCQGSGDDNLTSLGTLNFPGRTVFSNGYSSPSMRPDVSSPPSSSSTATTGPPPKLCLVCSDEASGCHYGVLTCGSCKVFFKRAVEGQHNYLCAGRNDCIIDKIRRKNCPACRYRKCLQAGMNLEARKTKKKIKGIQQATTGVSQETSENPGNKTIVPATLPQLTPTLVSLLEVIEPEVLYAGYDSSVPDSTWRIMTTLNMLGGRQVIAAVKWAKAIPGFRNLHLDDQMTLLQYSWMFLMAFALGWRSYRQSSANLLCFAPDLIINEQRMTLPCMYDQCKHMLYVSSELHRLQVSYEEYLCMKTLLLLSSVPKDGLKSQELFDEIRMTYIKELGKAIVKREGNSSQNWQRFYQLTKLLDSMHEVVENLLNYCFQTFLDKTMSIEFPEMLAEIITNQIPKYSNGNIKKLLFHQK
UniProt P03372, sequence (P03372 whole entry, looked up): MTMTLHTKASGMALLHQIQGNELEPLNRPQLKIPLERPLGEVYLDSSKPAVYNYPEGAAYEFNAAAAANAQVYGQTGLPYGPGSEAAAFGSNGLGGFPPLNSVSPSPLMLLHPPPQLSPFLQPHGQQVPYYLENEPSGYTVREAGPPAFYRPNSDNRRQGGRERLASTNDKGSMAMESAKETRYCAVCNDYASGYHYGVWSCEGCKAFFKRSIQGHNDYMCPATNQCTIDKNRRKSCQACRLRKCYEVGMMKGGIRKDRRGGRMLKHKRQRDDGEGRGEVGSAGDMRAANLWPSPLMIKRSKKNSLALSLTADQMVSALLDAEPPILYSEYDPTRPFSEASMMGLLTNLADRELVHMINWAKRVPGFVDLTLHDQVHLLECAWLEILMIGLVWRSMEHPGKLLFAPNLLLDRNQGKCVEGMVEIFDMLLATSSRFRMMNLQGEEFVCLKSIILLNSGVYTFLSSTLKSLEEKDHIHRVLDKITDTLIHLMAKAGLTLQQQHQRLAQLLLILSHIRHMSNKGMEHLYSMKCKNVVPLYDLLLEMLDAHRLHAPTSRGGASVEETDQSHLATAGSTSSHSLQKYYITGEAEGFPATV
UniProt P37231, sequence (P37231 whole entry, looked up): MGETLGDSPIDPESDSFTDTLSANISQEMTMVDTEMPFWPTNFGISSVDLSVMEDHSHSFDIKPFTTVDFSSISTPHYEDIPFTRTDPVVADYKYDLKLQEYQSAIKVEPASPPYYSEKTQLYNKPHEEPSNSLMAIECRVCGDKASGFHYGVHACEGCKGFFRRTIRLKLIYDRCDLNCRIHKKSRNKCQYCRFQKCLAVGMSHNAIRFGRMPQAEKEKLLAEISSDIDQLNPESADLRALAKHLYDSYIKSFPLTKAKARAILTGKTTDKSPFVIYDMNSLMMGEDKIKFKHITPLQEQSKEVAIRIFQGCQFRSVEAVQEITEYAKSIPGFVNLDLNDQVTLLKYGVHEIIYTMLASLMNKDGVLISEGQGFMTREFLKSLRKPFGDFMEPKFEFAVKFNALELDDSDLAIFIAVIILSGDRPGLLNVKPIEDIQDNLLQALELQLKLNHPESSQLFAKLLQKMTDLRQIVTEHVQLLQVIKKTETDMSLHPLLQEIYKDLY

CCN(CC)c1ccc(C(=C2C=CC(=[N+](CC)CC)C=C2)c2ccccc2)cc1
inconclusive: Potency [1] 8.41 µM [cytotoxic, partial curve] | Potency [3] 23.9 µM [cytotoxic, partial curve] | Potency [4] 8.49 µM [cytotoxic, partial curve] | Potency [6] 0.668 µM [inhibitor, partial curve, poor fit] | Potency [7] 0.213 µM | Potency [9] 3.35 µM [inhibitor, full curve] | Potency [11] 10.6 µM [cytotoxic, single point] | activation [13] -17%
active: Potency [2] 0.266 µM | Potency [5] 1.51 µM | Potency [8] 4.77 µM | Potency [10] 5.96 µM | Potency [12] 7.5 µM

Clc1cc(Cl)c(OCC#CI)cc1Cl
active: Potency [2] 4.73 µM | Potency [3] 26.8 µM [inconclusive] | Potency [14] 1.68 µM | Potency [15] 2.98 µM | Potency [16] 2.66 µM | Potency [10] 33.5 µM
inconclusive: Potency [1] 33.5 µM [activator] | Potency [4] 2.68 µM [activator] | Potency [17] 23.9 µM [cytotoxic] | Potency [18] 33.5 µM [cytotoxic, single point] | activation [6] -8.35% [phenotype inactive] | Potency [9] 26.6 µM [inhibitor, partial curve] | Potency [13] 10.7 µM [rising, partial curve, poor fit]

C[C@H](O)[C@H](O)[C@H]1CNc2nc(N)[nH]c(=O)c2N1
inactive: Potency [2] | Potency [19]
inconclusive: activation [1] 6.42% | Potency [11] 26.6 µM [rising, partial curve, poor fit]

c1ccc2c(CCC3CCNCC3)c[nH]c2c1
active: Potency [19] 18.8 µM
inactive: Potency [1] | Potency [4] | Potency [6] | Potency [9]
inconclusive: Potency [2] 33.5 µM [single point] | Potency [8] 10.7 µM [cytotoxic, single point]
